# Measurements reported in the supplement of paper PMC10126150.
# Sequences with one replicate were seen in a single cluster, so their values are uncertain.
# Test system: ATP
# Assay: switch fluorescence ratio, 500 uM ATP over buffer (Cy3 cluster intensity, sum of 5 cycles each) (fold (ratio)); higher = stronger signal-on switching upon ATP binding; sequences stand for … in TCGTCGGCAGCGTCAGATGTGTATAAGAGACAGTTTTTTTTTTTTTTTTTTTTTTTTT…TC
# Conditions: aptamer strand: ATP DNA aptamer (quencher-CACCTGGGGGAGTATTGCGGAGGAAGG + anchor), 100 nM annealed; ATP concentration: 500 uM; one replicate
# How it was run: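 Cy3-labelled switching-strand clusters on a modified Illumina MiSeq flow-cell were annealed to 100 nM quencher-labelled ATP aptamer, imaged in selection buffer, then imaged after 15 min with 500 uM ATP at 22 °C. Five buffer/ATP cycles ran, with NaOH stripping and re-annealing between them. The fluorescence ratio is summed target-cycle over summed buffer-cycle Cy3 intensity per cluster, averaged per switch-domain sequence. Clusters outside 100-1000 RFU were excluded.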
# 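Also: ATP exposure 15 min at 22 °C before imaging.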
row,Sequence,switch fluorescence ratio
1,AGAGGGAGT,0.995
2,GTTGCCGTTC,0.914
3,ATCTTGAATT,0.991
4,AGCGATTGTT,0.993
5,GCGCTAATTG,1.06
6,TTTAAGAACC,1.01
7,GGAAAATTCC,1.11
8,TCATAGGATG,1.01
9,CACTTTCGGT,0.965
10,CTCAGCAAAT,2.77
11,GCGGGCTTCC,1.18
12,TGAGGTTCAT,1.01
13,GAGGAGCTTA,1.01
14,AAGTATGTAG,1.07
15,ACTATGTTGG,0.931
16,CATATCCGGT,1.03
17,CAGAACACAT,1.12
18,CCTCGGGGGC,1.19
19,GGAACCGAGT,1.01
20,TCGGATGTT,1
21,CTTAGCCGGA,1.01
22,CCCTTTTCGT,0.999
23,CGACCGAGA,1.03

row,Sequence,switch fluorescence ratio
1,GAACAGTTGG,0.984
2,TGGCGCCTGT,0.989
3,AAAGTTGTTA,1.01
4,TGGCGATAAC,1.81
5,ATACGAATTA,0.992
6,GATAGCCGCT,1.06
7,ACAAAACCAG,1.15
8,ATTCAGCTTT,0.964
9,TAATATACTT,1.13
10,CATTTAGGTC,1
11,TACTTCGTGT,1.05
12,TTGTCCTTGT,1.02
13,GTACGAAGGA,0.989
14,AGCTTGCTAC,1
15,ACAGGTTTGT,0.973
16,AAACGAGGAA,0.988
17,ACTCGCTGTT,1.03
18,GCTGGCCCCA,1.02
19,ATTTAGTGCT,0.974
20,CATACCTTCG,2.35
21,ATCGCTGG,1.01
22,GTAGAATGCA,0.957
23,GGTGGATCGA,1.13

row,Sequence,switch fluorescence ratio
1,TTGGGCGATC,1.89
2,CGTACCCATA,1.13
3,GAGGACAGGT,0.999
4,TGTAGCTTCG,0.995
5,CTGACCTACA,1.31
6,CACGATCGCC,1.1
7,TACGCGGGCG,1.02
8,CAGTCAGACC,1.06
9,CTTCCGGCTG,1.58
10,CGTCAACCTG,1.03
11,TGTTAGTTAG,1.02
12,TGTGACAGGT,1.02
13,GCACTCCTCG,1.1
14,ATGCCATTGG,0.968
15,CATTCATAAC,1.06
16,CCATCTTCAG,1
17,AGTGTGTTAC,1.02
18,TAGTTTCAAT,0.982
19,AAGTGGAAGA,0.994
20,CAGGCAGCGA,1.34
21,TTGATCATTC,0.966
22,AAACAGAGT,0.961
23,CGGCTCCTCG,1

row,Sequence,switch fluorescence ratio
1,ATCCGATCGA,1.02
2,ATCAGTCAAT,1.15
3,GCGGAGGTT,1.01
4,TTATGAGCCA,0.998
5,TAAGGCGGCA,1.05
6,AAACTTTGGA,1
7,TGGATATTGC,1.03
8,AATTTACCGT,1.03
9,AGGGCACTCT,1.02
10,CAGTAATCAG,1.01
11,AAAGGCTAGT,0.991
12,GCAGTATGAA,1.01
13,CTCTGGCACG,1.1
14,TTAATATGC,0.919
15,CATGAATCGC,1.05
16,ATACTGTTGC,0.999
17,CTATGTTGTG,0.981
18,TTTTGGACCG,1.21
19,CCGGGACTTC,1.16
20,CAGGCGGAGC,1.03
21,TTATTTCTGC,0.949
22,TTCATCAGGC,0.94
23,AAATTCGGT,0.984

row,Sequence,switch fluorescence ratio
1,AGTATAGGTC,0.978
2,TGGACTGTTT,1.06
3,CATACTTACC,1.12
4,GAAGTTTGCT,0.927
5,GTGTTCCGCT,1.07
6,TGTCTTCCCG,1.19
7,AGGTTGACTC,0.984
8,TTTCCAGCTA,1.09
9,TAGATGAAGG,0.98
10,TGATTAACCA,1.02
11,ATCATTGGAT,0.99
12,AAAAGGTCTA,0.969
13,CCGCCTACAC,3.56
14,CTCAAATGTG,1.02
15,ATAGGCGGGG,0.979
16,GATTCGTTGT,1
17,AGAAGCGGTG,1.01
18,GGGGAGGTAT,1.03
19,ATGTCGAAGC,0.976
20,CTCTACATTA,1.07
21,AGGTTTGGAA,0.975
22,GGCAGACGTG,1.05
23,TACGACTTCT,0.97

row,Sequence,switch fluorescence ratio
1,TTGAATAAAT,1.02
2,TTGTCCTGCA,1.04
3,GCCCGACGGC,1.06
4,CCTTATTGCT,0.988
5,ATCGATCTTT,0.978
6,GCCTGGACTC,1.02
7,AAAGTTGAAA,0.979
8,GACGTAGAGT,0.988
9,AATAGCATAG,1.02
10,ACCGCTTTGT,1.04
11,GCGTAGTACC,1.04
12,TATCTGGTTA,0.956
13,TACTGCCGG,1.1
14,ATGGTATTCA,0.999
15,TTATGTTCTT,0.996
16,GAGGTAACAC,1.06
17,GATGCTGGGG,0.97
18,CCTTGACGCA,1.06
19,TTAGCAGCCG,0.999
20,CTTGAGAGGA,1.05
21,TTCTTTGTAT,1
22,CAGATGGGTG,1.06
23,TAGTTATGAT,0.974

row,Sequence,switch fluorescence ratio
1,AAGGACCAGT,1.05
2,CGTACGGGAG,1.04
3,TTATAGGA,1.03
4,TGAACAGATA,1.03
5,GTTACCTATA,1.07
6,AACGGGTGTG,1.02
7,CGCGTAGATC,0.992
8,GAGTTAAAC,1.05
9,CAATAAGGTG,1.42
10,GTGGTCGGTG,1.01
11,CCTGCCAACT,1.27
12,TGTGAGTGTC,1.05
13,ACAATACATA,1.2
14,AGCCTACTGA,1.04
15,GCTGATGATG,0.998
16,GGCCATGGAA,0.991
17,TAGGTGAGGT,0.992
18,ATGGTGTCGT,1.01
19,AACCTGTGTA,1.01
